Laboratory results as given in PubChem BioAssay AID1347120 (National Center for Advancing Translational Sciences (NCATS), 2019).
The campaign covered roughly 390,000 compounds. About 930 (0.24%) were called active. This list was built around the results that the source calls inconclusive (neither active nor inactive); the mix of calls is not that of the screen. Calls come from the whole dose curve; as a rule, active = well fitted activation curve with a large enough effect; inconclusive = small, poorly fitted or top-dose-only effect; inactive = no such curve, though single readings can be large or run the other way. A potency beside an inconclusive call is a rough fit, not a confirmed value.

Experiment: qHTS for Suppressors of FUS Proteinopathy: Primary screen using FUS-linked yeast assay; note: nearly all actives have a fitted effect of over 55% in size
Conditions: S. cerevisiae FUS-expressing, OD600, 24 h; Potency: growth rescue; series mostly up to 76.6 µM
In short: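 Read-out: OD at 600 nm after 24hr at 30C, reporting rescue of FUS-induced yeast toxicity. Cells at OD 0.005 in galactose (2%) minimal medium; compounds tested in a dilution series; CP55940 titration from 92uM final as control.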
Potency is the fitted concentration of half-maximal effect; tags give direction and shape of the fitted curve.

Compound	Potency
CCOc1ccc(NC(=O)C(CC)n2c(=O)c(-c3ccccc3NC(C)=O)nc3ccccc32)cc1 (stereo not given)	inconclusive: 39.8 µM [activator, partial curve, poor fit]
Cc1cc(C(=O)COc2ccc(-c3nnco3)cc2)c(C)n1Cc1ccccc1	inconclusive: 35.5 µM [activator, partial curve, poor fit]
CC(NC(=O)COC(=O)c1ccc[nH]c1=O)c1ccccc1 (stereo not given)	inactive
C#CCSc1nc2[nH]ncc2c(=O)[nH]1	inconclusive: 44.7 µM [activator, partial curve, poor fit]
COC(=O)[C@]12CCCCC=C1N(Cc1ccccc1)C(=O)[C@H](CC(=O)NCc1cccc3ccccc13)C2	inconclusive: 50.1 µM [activator, single point]
Cc1ccc(C2CC2c2n[nH]c(=S)n2-c2cccc(Cl)c2)cc1 (stereo not given)	inactive
O=C(Nc1ccc2oc(-c3cc(Br)ccc3Cl)nc2c1)c1cc2ccccc2o1	inactive
COc1cccc(NC(=O)CN(C)C(=O)c2cccnc2Nc2cccc(C(F)(F)F)c2)c1	inconclusive: 20 µM [activator, partial curve]
CCCCCCCCN1C(=O)[C@H](CC(=O)NCCCOC)C[C@@]2(C(=O)OC)CCCCC=C12	inconclusive: 50.1 µM [activator, single point]
CCCn1c(CN2CCN(c3ccc(OC)cc3)CC2)nc2c1c(=O)[nH]c(=O)n2C	inactive
CS(=O)(=O)Nc1cccc(-c2cc(NC=O)c3ncc(-c4ccc(F)c(Cl)c4)n3c2)c1	inconclusive: 35.5 µM [activator, single point]
Cc1cc(C)c(S(=O)(=O)NCCn2ccc3ccccc32)c(C)c1	inactive
CCOc1ccc2nc(N(CCCN(C)C)C(=O)c3ccc(S(=O)(=O)N4CCc5ccccc5C4)cc3)sc2c1	inconclusive: 35.5 µM [activator, single point]
COc1cccc(CNC(=O)COc2cc3c(c4oc(=O)cc(C)c24)CCC(C)(C)O3)c1	inconclusive: 28.2 µM [activator, single point]
CC(=O)c1sc2c(c1OC(=O)c1ccc(Cl)cc1Cl)c(=O)n(-c1ccccc1)c(=S)n2-c1ccccc1	inconclusive: 20 µM [activator, single point]
NNc1nccc(Nc2ccccc2C(=O)O)n1	inconclusive: 7.94 µM [activator, partial curve]
COC(=O)c1ccc(NC(=O)Cn2nc(-c3ccncc3)nc2SCC(=O)Nc2nccs2)cc1	inconclusive: 56.2 µM [activator, partial curve, poor fit]
COc1ccc(CC(N)c2csc(NC(=O)NCc3ccccc3)n2)cc1 (stereo not given)	inconclusive: 28.2 µM [activator, single point]
CCOc1ccc(C2=CC(c3cccc(Br)c3)n3c(nc4ccccc43)N2)cc1Cl (stereo not given)	inactive
Cc1ccc(NC(=O)Cn2nc(N3CCN(c4ccccc4)CC3)ccc2=O)cc1F	inconclusive: 35.5 µM [activator, single point]

Compound	Potency
CC(C)(C)c1ccc(CNc2nc(-c3ccccn3)nnc2-c2ccccc2)cc1	inconclusive: 31.6 µM [activator, partial curve, poor fit]
COc1ccc(S(=O)(=O)N2Cc3ccccc3CC2C(=O)Nc2ccc(C)cc2C)cc1OC (stereo not given)	inconclusive: 50.1 µM [activator, single point]
CCC1CCCCN1S(=O)(=O)c1cc2c3c(c1)CC(=O)N3CCC2 (stereo not given)	inconclusive: 35.5 µM [activator, single point]
Cc1ccc(C(=O)O/N=C2\CCCc3ccccc32)cc1	inactive
CCCNC(=O)C[C@H]1CC[C@H]2[C@@H](COc3ccc(NC(=O)Nc4ccc(C#N)cc4)cc3C(=O)N2C)O1	inactive
COc1ccc2sc(N(CCCN(C)C)C(=O)c3ccc(S(=O)(=O)N4CCCc5ccccc54)cc3)nc2c1	inconclusive: 28.2 µM [activator, partial curve, poor fit]
Cc1cccc(N2CCN(C(=O)c3c(C)nn(Cc4ccccc4Cl)c3C)CC2)c1C	inconclusive: 25.1 µM [activator, single point]
COC(=O)c1[nH]c2cc(OC)c(OC)cc2c1/C=N/Nc1ccccc1	inactive
COC(=O)c1c(NC(=O)/C(C#N)=C/c2ccccc2)sc2c1C(C(=O)OC)CC2 (stereo not given)	inconclusive: 22.4 µM [activator, partial curve, poor fit]
CCS(=O)(=O)N1Cc2ccccc2CC1C(=O)Nc1cccc(S(=O)(=O)N(C)C)c1 (stereo not given)	inconclusive: 15.8 µM [activator, partial curve]
COc1ccc(-n2c(=S)[nH]c3cc(C(=O)Nc4ccccc4OC)ccc3c2=O)c(OC)c1	inconclusive: 31.6 µM [activator, partial curve, poor fit]
O=C(NCCc1csc2nc(-c3ccccc3F)nn12)C(=O)Nc1cc(F)ccc1F	inactive
O=C(c1ccco1)N1CCN(Cc2cc(=O)c(OCc3ccccc3)co2)CC1	inactive
CSCCC(NS(=O)(=O)c1ccccc1F)C(=O)Nc1cccc(C)n1 (stereo not given)	inconclusive: 50.1 µM [activator, single point]
O=C(c1cc(COc2ccc(F)cc2Cl)on1)N1CC2C[C@@H]3CC1C[C@H](C2)C3	inactive
COc1ccc(Cn2c(=O)[nH]c3cc(C(=O)NCCCN4CCCC4=O)ccc3c2=O)cc1	inconclusive: 50.1 µM [activator, single point]
O=C1CCC/C(=N/NC(=O)c2ccc(CN3c4cccc5cccc(c45)S3(=O)=O)cc2)C1	inconclusive: 22.4 µM [activator, partial curve]
CCn1c(COc2ccccc2)nnc1SCC(=O)CC(=O)Nc1ccccc1OC	inconclusive: 1.41 µM [activator, full curve, poor fit]
CC(C)(C)NC(=O)C(c1ccnc2ccccc12)n1c(=O)c(-c2cc3ccccc3[nH]2)nc2ccccc21 (stereo not given)	inconclusive: 8.91 µM [activator, partial curve, poor fit]
CCOc1ccc(-n2nc3ccc(NC(=O)Cc4ccccc4)cc3n2)cc1	inconclusive: 17.8 µM [activator, partial curve, poor fit]

Compound	Potency
COC(=O)[C@@]1(Cc2ccc(F)cc2)[C@H]2c3cc(C(=O)N4CCCC4)n(CCc4ccc(OC)c(Br)c4)c3C[C@H]2CN1C(=O)c1ccccc1	inconclusive: 31.6 µM [activator, partial curve, poor fit]
Cc1cc(-c2ccc(C)c(S(=O)(=O)N3CCOc4ccc(Cl)cc43)c2)on1	inactive
CCc1cccc(NC(=O)CN(C)S(=O)(=O)c2ccc3[nH]c4c(c3c2)CCCC4)c1	inconclusive: 35.5 µM [activator, single point]
COC(=O)[C@]12C[C@H](CC(=O)N3CCN(C(=O)C4CC4)CC3)C(=O)N(Cc3ccco3)C1=C[C@H](C1CCCC1)O[C@@H]2C	inactive
Cc1cc(C)nc(SCc2nnc(SCC(=O)Nc3nc(-c4ccccc4)cs3)n2-c2ccccc2)n1	inconclusive: 4.47 µM [activator, full curve]
CCOc1ccc(Cl)cc1-c1cc(C(=O)NCc2ccccc2)[nH]n1	inconclusive: 35.5 µM [activator, single point]
c1ccc(-c2nc(-c3ccco3)cs2)nc1	inconclusive: 35.5 µM [activator, single point]
N#CCC(=O)Nc1ccc(C(=O)OCc2ccccc2Oc2ccccc2)cc1	inconclusive: 28.2 µM [activator, partial curve, poor fit]
COc1ccc(CCNc2ncnc3c2nnn3C)cc1	inactive
O=C(c1ccc(N2C(=O)c3ccccc3C2=O)cc1)N1CCN(S(=O)(=O)c2ccccc2F)CC1	active: 28.2 µM
COc1ccc2c(CC(=O)NCCN3C(=O)S/C(=C\c4cccnc4)C3=O)coc2c1	inconclusive: 31.6 µM [activator, partial curve, poor fit]
CC(Oc1ccccc1)C(=O)N=C1SC2CS(=O)(=O)CC2N1CCc1ccccc1 (stereo not given)	inconclusive: 8.91 µM [activator, partial curve]
c1ccc(OCc2nn3c(C4CCCCC4)nnc3s2)cc1	inconclusive: 28.2 µM [activator, single point]
Nc1ccc2c(c1)C(=O)C(=O)c1ccccc1-2	inactive
COc1ccc(-n2c(C)cc(C(=O)CN3C(=O)NC4(CCc5ccccc54)C3=O)c2C)cc1 (stereo not given)	inconclusive: 15.8 µM [activator, partial curve]
CC1(C)CC(=O)C2=C(C1)Nc1[nH]n(-c3ccccc3)c(=O)c1C2c1ccc2c(c1)OCO2 (stereo not given)	inconclusive: 22.4 µM [activator, partial curve]
COc1ccccc1-c1nnc(SCC(=O)c2ccc(C3CCCCC3)cc2)n1Cc1ccco1	inconclusive: 31.6 µM [activator, partial curve, poor fit]
COc1ccc(-n2nc(C(=O)NCC(=O)N3CCN(c4ccccc4OC)CC3)c3ccccc3c2=O)cc1OC	inconclusive: 7.08 µM [activator, partial curve]
Cc1c(NC(=O)c2cnn3c2NC(c2ccc(Br)cc2)CC3C(F)(F)F)c(=O)n(-c2ccccc2)n1C (stereo not given)	inconclusive: 35.5 µM [activator, single point]
CCCCCCCCN1C(=O)[C@H](CC(=O)NCC23CC4CC(CC(C4)C2)C3)C[C@@]2(C(=O)OC)CC(C)(C)CC=C12	inconclusive: 12.6 µM [activator, partial curve, poor fit]
